According to patent US10729694B2 (AI Therapeutics, Inc., priority 2015, dated 2020):

Tested on: CYP3A4, CYP1A2, CYP2D6
Settings: human

Structure (SMILES): Cc1cccc(/C=N/Nc2cc(N3CCOCC3)nc(OCCc3ccccn3)n2)c1 [apilimod]
- enzymes contributing to metabolism: CYP3A4 and to a lesser extent CYP1A2 and/or CYP2D6, contribute to metabolism
